Experimental data taken from the supplement of paper PMC3334620.
Over roughly 33,000 sequences, “E-score (-0.5 to 0.5)” has its median near -0.011; the highest 2% begin near 0.28. The list shows a part of the results.

target: T1, Gcr1 (UniProt P07261); experiment: PBM E-score (8-mer binding enrichment) (E-score (-0.5 to 0.5)); higher = stronger / more preferred TF binding; most listed sequences are background and not binding sites; conditions: protein concentration: 100 nM; construct: GST-full length
T1 sequence: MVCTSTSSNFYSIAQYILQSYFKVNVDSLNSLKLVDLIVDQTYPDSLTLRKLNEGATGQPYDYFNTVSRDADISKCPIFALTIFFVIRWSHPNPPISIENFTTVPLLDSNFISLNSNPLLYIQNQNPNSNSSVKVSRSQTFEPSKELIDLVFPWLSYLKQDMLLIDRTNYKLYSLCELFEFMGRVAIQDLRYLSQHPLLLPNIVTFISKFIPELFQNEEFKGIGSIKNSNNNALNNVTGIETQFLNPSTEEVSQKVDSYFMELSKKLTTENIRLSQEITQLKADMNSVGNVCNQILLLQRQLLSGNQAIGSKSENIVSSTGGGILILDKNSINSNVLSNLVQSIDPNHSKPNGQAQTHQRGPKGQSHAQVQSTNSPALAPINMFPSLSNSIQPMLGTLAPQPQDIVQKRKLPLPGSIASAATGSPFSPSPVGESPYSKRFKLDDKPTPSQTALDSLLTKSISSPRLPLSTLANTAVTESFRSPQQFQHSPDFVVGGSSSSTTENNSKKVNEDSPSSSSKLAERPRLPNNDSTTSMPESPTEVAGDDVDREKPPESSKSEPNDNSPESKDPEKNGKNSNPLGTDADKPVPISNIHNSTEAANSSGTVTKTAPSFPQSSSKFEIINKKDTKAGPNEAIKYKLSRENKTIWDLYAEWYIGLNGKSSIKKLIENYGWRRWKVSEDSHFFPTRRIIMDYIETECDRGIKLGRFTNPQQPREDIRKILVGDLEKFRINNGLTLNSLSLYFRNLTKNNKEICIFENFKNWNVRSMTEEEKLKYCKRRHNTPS
Outline: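 Detection of bound protein used fluorescent anti-GST, with scans normalised by masliner. The proteins were GST-tagged yeast transcription factors applied at about 100-200 nM to universal all-10-mer Agilent arrays made double-stranded by primer extension. Each ungapped eight-base word, pooled with its reverse complement, was scored with an E-score from the Universal PBM Analysis Suite.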

In order of falling “PBM E-score” value:
1. ATCCACTA  0.369
2. ACAGGAAT  0.307
3. CGAAGCCG  0.285
4. AATTACAG  0.283
5. CTTGTGGA  0.267
6. CCAGGAGC  0.264
7. AGACGCCC  0.259
8. AATTATAG  0.245
9. AAGTGGCT  0.237
10. TAGAGGCA  0.219
11. GAAGTTAC  0.188
12. ATCCCGTC  0.181
13. ATCCTGAG  0.171
14. GGTAATAA  0.168
15. CGAAAAAA  0.166
16. AAACCAAT  0.161
17. AAAATTTT  0.16
18. AGTAGCAG  0.156
19. GTATTTTA  0.149
20. AGCCACTC  0.146
21. CTACTATC  0.146
22. CTCCCGAA  0.145
23. CCATGGCG  0.142
24. CCAAAATC  0.136
25. CAAAGGAG  0.128
26. AGGTGTGG  0.126
27. AAATTTTA  0.126
28. AGTCCTAT  0.126
29. ATCATTCG  0.122
30. TCCCAACA  0.122
31. TATTCTAA  0.12
32. AAGTAGTC  0.119
33. GGCATAGA  0.109
34. ACGGGCAA  0.107
35. GGAAACCC  0.106
36. CATGGGAA  0.101
37. CGAATATC  0.0967
38. AAGGTGAA  0.0933
39. TTCGTCAA  0.0927
40. ACTTATAA  0.091
41. GCGCCACA  0.0894
42. ATCCCAGC  0.0877
43. ACGCTGCG  0.086
44. AAGCTGGA  0.0849
45. CATGACGA  0.0824
46. AACTGGTG  0.0802
47. GCGCCGTA  0.0769
48. ATCCAATG  0.0722
49. CCAGTCCC  0.0688
50. ATTTTCAC  0.0633
51. CACTGATG  0.0627
52. CGCTGCAG  0.0618
53. ATAAGTCA  0.0598
54. ATTCAATA  0.0589
55. AAAATGCA  0.0508
56. CAACATGA  0.047
57. ACTTTGAG  0.0468
58. CCGTTTCC  0.0464
59. ACGGTACA  0.0448
60. ATGTGCCA  0.0443
61. CATGTTCG  0.0427
62. CAATTCAG  0.0423
63. CACCATAA  0.0402
64. GGGGAGAC  0.0349
65. ATCAACAT  0.0342
66. ATCGCGAG  0.0335
67. AACGTATT  0.0318
68. TACCAGCA  0.0312
69. GTCTAGGA  0.0291
70. GGGGAAAC  0.0278
71. ACATGCTA  0.0274
72. AGATACGG  0.0264
73. CTCATGGA  0.0255
74. GGGATGGA  0.0231
75. GTTTCTCA  0.0213
76. CAGTTCCA  0.0208
77. CAGCTAAA  0.0206
78. ACCTGTGA  0.0203
79. CCAATACA  0.0174
80. GCGTTAAA  0.0171
81. AGAGTCAA  0.0159
82. AACCGTAG  0.0128
83. CTTCACGC  0.0124
84. ATTTGCTA  0.0116
85. CCCCATGC  0.00744
86. GCTTTGTA  0.00523
87. AGATGGCG  -0.00188
88. AAGTCCGA  -0.00311
89. GCATATCA  -0.00628
90. CAGCGTGC  -0.00684
91. AGGATAAG  -0.00711
92. CAAGCCGC  -0.00721
93. GTAGAAAC  -0.0106
94. CCTTTCCG  -0.0125
95. CCGATTGA  -0.0126
96. AACCAATG  -0.0131
97. CTAATTAC  -0.015
98. GTATTGAC  -0.015
99. AAGAGCCA  -0.0177
100. ATTGCATG  -0.0212
101. GGGATGTA  -0.0223
102. CCTATCCC  -0.0228
103. CACCATCA  -0.0258
104. CCTTTTAA  -0.0268
105. CTTAAAGC  -0.0282
106. AAAGTTCG  -0.0299
107. AAGCCAAC  -0.0303
108. TCTGAGAA  -0.0348
109. AAAATCAC  -0.0384
110. TGGGTGAA  -0.0393
111. AGCAATAT  -0.0424
112. AACTCAGA  -0.0497
113. GATGTTAC  -0.0502
114. GTCTAAAC  -0.0511
115. TTCATCAA  -0.0519
116. GACGGCCA  -0.0562
117. AGTAAATG  -0.0661
118. ATGTACGG  -0.07
119. GACACATC  -0.072
120. CCGAAAGC  -0.0722
121. CGAACCAA  -0.0751
122. CACCTGAG  -0.0795
123. TAAAGGGA  -0.0823
124. CCACTGGA  -0.0825
125. CGAAGCAA  -0.0863
126. AGTCAAGA  -0.091
127. AAGAGACC  -0.0918
128. ATCAGTAC  -0.0928
129. GGGAGCAC  -0.0978
130. TAGCATGA  -0.0978
131. AGGTAGCA  -0.1
132. CGCTCAAG  -0.102
133. AATGGTCG  -0.107
134. GCGTATGA  -0.107
135. GACCAGGA  -0.108
136. AGGTAAGA  -0.112
137. GATATAGC  -0.118
138. TCAGAGGA  -0.118
139. ACGACCGA  -0.119
140. CAATCGAA  -0.121
141. CTTACCTC  -0.124
142. TAACGTGA  -0.128
143. ATAAAGAG  -0.129
144. GATTGTAC  -0.131
145. CCCGCGAG  -0.132
146. AACGATCC  -0.143
147. TGCCTCCA  -0.143
148. CACAGTGC  -0.145
149. AAGAACGT  -0.147
150. CGATCGAC  -0.154
151. AACGTGAT  -0.161
152. CCTCAACA  -0.163
153. GCGGCTAA  -0.164
154. CTGCGATA  -0.167
155. GGACTTAA  -0.175
156. CCCTGCCC  -0.184
157. CAAGGCCG  -0.184
158. CAGACCCG  -0.19
159. AAACGTGT  -0.191
160. CACACTGC  -0.192
161. AGCAGTAT  -0.197
162. CGTCCCTC  -0.202
163. GCAGACTA  -0.204
164. GCCTTTCC  -0.231
165. GACACTCC  -0.241
166. CAAGCCCA  -0.244
167. CAAGCCCG  -0.247
168. ACCCAGTC  -0.261
169. CTAGCGAG  -0.272
170. AAGGGGGT  -0.289
171. TCATGAGA  -0.289
172. CAGTCCTC  -0.295
